By IC50 is meant the dose at which the fit gives 50% viability; a limit (>, <) means that the fit lies beyond the doses tested. AUC sums up the same curve from the lowest dose to the 256-fold higher top dose; the more sensitive the line, the further below 1. For some assays here: An inferred top dose is not printed in the source and was worked back from the curve model. For some assays here: Where an entry number is given, a second screen of the drug exists; the two often differ.
Columns and labels:
Assay in all cases: Viability of human cancer cell lines after 72 h of drug (GDSC screen)
MG-132 = compound: CC(C)C[C@@H](C=O)NC(=O)[C@H](CC(C)C)NC(=O)[C@H](CC(C)C)NC(=O)OCc1ccccc1 [MG-132]; conditions: top dose 1 µM
Protocol: (§1)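 Human cancer cell lines in 384-well plates, medium with 10% serum, drug for 72 h over a 256-fold dose range (nine 2-fold or five 4-fold steps up to the top dose). Adherent lines were fixed and stained with the nucleic acid dye Syto60, suspension lines read with resazurin; signal relative to control wells, capped at 0 and 100%. One two-parameter sigmoid per drug and line, fitted in a mixed model over all curves with the slope shared within a line.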

AR-42 = compound: CC(C)[C@H](C(=O)Nc1ccc(C(=O)NO)cc1)c1ccccc1 [AR-42]; conditions: top dose 5.12 µM; top dose inferred
Protocol: as §1

CEP-701 = compound: C[C@]12O[C@H](C[C@]1(O)CO)n1c3ccccc3c3c4c(c5c6ccccc6n2c5c31)CNC4=O [CEP-701]; conditions: top dose 2 µM; top dose inferred
Protocol: as §1

Pazopanib = compound: Cc1ccc(Nc2nccc(N(C)c3ccc4c(C)n(C)nc4c3)n2)cc1S(N)(=O)=O [Pazopanib]; conditions: top dose 8 µM
Protocol: as §1

SB 216763 = compound: Cn1cc(C2=C(c3ccc(Cl)cc3Cl)C(=O)NC2=O)c2ccccc21 [SB 216763]; conditions: top dose 10 µM; top dose inferred
Protocol: as §1

GDC0941 = compound: CS(=O)(=O)N1CCN(Cc2cc3nc(-c4cccc5[nH]ncc45)nc(N4CCOCC4)c3s2)CC1 [GDC0941]; conditions: top dose 4 µM; screen: GDSC drug entry 1527; top dose inferred
Protocol: as §1

NCI-H1963 (small cell lung carcinoma, suspension)
AUC (MG-132): 0.829 | IC50 (MG-132): 0.517 µM | AUC (AR-42): 0.886 | IC50 (AR-42): 4.39 µM | AUC (CEP-701): 0.681 | IC50 (CEP-701): 0.372 µM | AUC (Pazopanib): 0.991 | IC50 (Pazopanib): > 8 µM | AUC (SB 216763): 0.991 | IC50 (SB 216763): > 10 µM

MOLM-13 (acute myeloid leukaemia, suspension)
AUC (MG-132): 0.767 | IC50 (MG-132): 0.349 µM | AUC (AR-42): 0.267 | IC50 (AR-42): 0.073 µM | AUC (CEP-701): 0.089 | IC50 (CEP-701): < 0.00781 µM | AUC (Pazopanib): 0.723 | IC50 (Pazopanib): 2.04 µM | AUC (SB 216763): 0.981 | IC50 (SB 216763): > 10 µM

RXF393 (kidney, adherent)
AUC (MG-132): 0.716 | IC50 (MG-132): 0.328 µM | AUC (AR-42): 0.555 | IC50 (AR-42): 0.479 µM | AUC (GDC0941): 0.793 | IC50 (GDC0941): 2.67 µM | AUC (CEP-701): 0.747 | IC50 (CEP-701): 0.866 µM | AUC (Pazopanib): 0.854 | IC50 (Pazopanib): > 8 µM

MY-M12 (leukaemia, suspension)
AUC (MG-132): 0.727 | IC50 (MG-132): 0.305 µM | AUC (AR-42): 0.252 | IC50 (AR-42): 0.0559 µM | AUC (CEP-701): 0.563 | IC50 (CEP-701): 0.19 µM | AUC (Pazopanib): 0.635 | IC50 (Pazopanib): 1.24 µM | AUC (SB 216763): 0.981 | IC50 (SB 216763): > 10 µM

MV-4-11 (leukaemia, suspension)
AUC (MG-132): 0.826 | IC50 (MG-132): 0.466 µM | AUC (SB 216763): 0.815 | IC50 (SB 216763): 4.29 µM

IM-9 (myeloma, suspension)
AUC (MG-132): 0.974 | IC50 (MG-132): > 1 µM | AUC (GDC0941): 0.982 | IC50 (GDC0941): > 4 µM | AUC (CEP-701): 0.787 | IC50 (CEP-701): 0.745 µM | AUC (Pazopanib): 0.983 | IC50 (Pazopanib): > 8 µM | AUC (SB 216763): 0.985 | IC50 (SB 216763): > 10 µM

NCI-H69 (small cell lung carcinoma, suspension)
AUC (MG-132): 0.629 | IC50 (MG-132): 0.148 µM | AUC (GDC0941): 0.665 | IC50 (GDC0941): 0.761 µM | AUC (CEP-701): 0.801 | IC50 (CEP-701): 1.1 µM | AUC (Pazopanib): 0.917 | IC50 (Pazopanib): > 8 µM | AUC (SB 216763): 0.986 | IC50 (SB 216763): > 10 µM

U-87-MG (glioma, adherent)
AUC (MG-132): 0.972 | IC50 (MG-132): > 1 µM | AUC (AR-42): 0.841 | IC50 (AR-42): 4.52 µM | AUC (CEP-701): 0.885 | IC50 (CEP-701): > 2 µM | AUC (Pazopanib): 0.975 | IC50 (Pazopanib): > 8 µM | AUC (SB 216763): 0.977 | IC50 (SB 216763): > 10 µM

EVSA-T (breast, adherent)
AUC (MG-132): 0.725 | IC50 (MG-132): 0.243 µM | AUC (AR-42): 0.408 | IC50 (AR-42): 0.186 µM | AUC (GDC0941): 0.573 | IC50 (GDC0941): 0.384 µM | AUC (CEP-701): 0.743 | IC50 (CEP-701): 0.547 µM | AUC (Pazopanib): 0.987 | IC50 (Pazopanib): > 8 µM

SU-DHL-8 (B-cell lymphoma, suspension)
AUC (MG-132): 0.72 | IC50 (MG-132): 0.25 µM | AUC (AR-42): 0.192 | IC50 (AR-42): 0.0422 µM | AUC (GDC0941): 0.939 | IC50 (GDC0941): > 4 µM | AUC (Pazopanib): 0.651 | IC50 (Pazopanib): 1.27 µM

NOMO-1 (acute myeloid leukaemia, suspension)
AUC (MG-132): 0.898 | IC50 (MG-132): > 1 µM | AUC (AR-42): 0.437 | IC50 (AR-42): 0.211 µM | AUC (CEP-701): 0.412 | IC50 (CEP-701): 0.0692 µM | AUC (Pazopanib): 0.958 | IC50 (Pazopanib): > 8 µM | AUC (SB 216763): 0.973 | IC50 (SB 216763): > 10 µM

LOXIMVI (melanoma, semi-adherent)
AUC (MG-132): 0.86 | IC50 (MG-132): 0.697 µM | AUC (AR-42): 0.631 | IC50 (AR-42): 0.702 µM | AUC (GDC0941): 0.79 | IC50 (GDC0941): 1.58 µM | AUC (Pazopanib): 0.943 | IC50 (Pazopanib): > 8 µM

TC-YIK (cervix, suspension)
AUC (MG-132): 0.973 | IC50 (MG-132): > 1 µM | AUC (GDC0941): 0.752 | IC50 (GDC0941): 1.17 µM | AUC (CEP-701): 0.632 | IC50 (CEP-701): 0.274 µM | AUC (SB 216763): 0.991 | IC50 (SB 216763): > 10 µM

RS4-11 (leukaemia, suspension)
AUC (MG-132): 0.984 | IC50 (MG-132): > 1 µM | AUC (AR-42): 0.235 | IC50 (AR-42): 0.0593 µM | AUC (GDC0941): 0.846 | IC50 (GDC0941): 2.55 µM | AUC (Pazopanib): 0.872 | IC50 (Pazopanib): 6.52 µM

RKO (large intestine, adherent)
AUC (MG-132): 0.757 | IC50 (MG-132): 0.322 µM | AUC (AR-42): 0.565 | IC50 (AR-42): 0.475 µM | AUC (CEP-701): 0.636 | IC50 (CEP-701): 0.287 µM | AUC (SB 216763): 0.984 | IC50 (SB 216763): > 10 µM

HEL (acute myeloid leukaemia, semi-adherent)
AUC (MG-132): 0.682 | IC50 (MG-132): 0.183 µM | AUC (AR-42): 0.249 | IC50 (AR-42): 0.071 µM | AUC (GDC0941): 0.973 | IC50 (GDC0941): > 4 µM | AUC (Pazopanib): 0.989 | IC50 (Pazopanib): > 8 µM

EKVX (lung adenocarcinoma, adherent)
AUC (MG-132): 0.834 | IC50 (MG-132): > 1 µM | AUC (AR-42): 0.805 | IC50 (AR-42): > 5.12 µM | AUC (GDC0941): 0.713 | IC50 (GDC0941): 2.04 µM | AUC (CEP-701): 0.664 | AUC (Pazopanib): 0.904 | IC50 (Pazopanib): > 8 µM

THP-1 (acute myeloid leukaemia, suspension)
AUC (MG-132): 0.991 | IC50 (MG-132): > 1 µM | AUC (GDC0941): 0.916 | IC50 (GDC0941): > 4 µM | AUC (CEP-701): 0.756 | IC50 (CEP-701): 0.623 µM | AUC (SB 216763): 0.991 | IC50 (SB 216763): > 10 µM

UACC-812 (breast, adherent)
AUC (MG-132): 0.937 | IC50 (MG-132): > 1 µM | AUC (AR-42): 0.665 | IC50 (AR-42): 0.902 µM | AUC (Pazopanib): 0.987 | IC50 (Pazopanib): > 8 µM

NCI-H1355 (lung adenocarcinoma, adherent)
AUC (MG-132): 0.736 | IC50 (MG-132): 0.407 µM | AUC (AR-42): 0.914 | IC50 (AR-42): > 5.12 µM | AUC (GDC0941): 0.628 | IC50 (GDC0941): 0.658 µM | AUC (Pazopanib): 0.868 | IC50 (Pazopanib): > 8 µM

MDST8 (large intestine, adherent)
AUC (MG-132): 0.921 | IC50 (MG-132): > 1 µM | AUC (GDC0941): 0.855 | IC50 (GDC0941): 3.16 µM | AUC (CEP-701): 0.51 | IC50 (CEP-701): 0.133 µM | AUC (Pazopanib): 0.988 | IC50 (Pazopanib): > 8 µM | AUC (SB 216763): 0.984 | IC50 (SB 216763): > 10 µM

TALL-1 (T-cell lymphoblastic leukaemia, suspension)
AUC (MG-132): 0.989 | IC50 (MG-132): > 1 µM | AUC (AR-42): 0.521 | IC50 (AR-42): 0.365 µM | AUC (Pazopanib): 0.989 | IC50 (Pazopanib): > 8 µM

RPMI-8226 (myeloma, suspension)
AUC (MG-132): 0.988 | IC50 (MG-132): > 1 µM | AUC (AR-42): 0.407 | IC50 (AR-42): 0.185 µM | AUC (SB 216763): 0.99 | IC50 (SB 216763): > 10 µM

SU-DHL-1 (anaplastic large cell lymphoma, suspension)
AUC (MG-132): 0.893 | IC50 (MG-132): 0.61 µM | AUC (AR-42): 0.754 | IC50 (AR-42): 1.32 µM | AUC (Pazopanib): 0.994 | IC50 (Pazopanib): > 8 µM

GAK (melanoma, adherent)
AUC (MG-132): 0.709 | IC50 (MG-132): 0.235 µM | AUC (AR-42): 0.623 | IC50 (AR-42): 0.686 µM | AUC (SB 216763): 0.985 | IC50 (SB 216763): > 10 µM

NCI-H1975 (lung adenocarcinoma, adherent)
AUC (MG-132): 0.64 | IC50 (MG-132): 0.161 µM | AUC (AR-42): 0.561 | IC50 (AR-42): 0.48 µM | AUC (CEP-701): 0.709 | IC50 (CEP-701): 0.534 µM | AUC (Pazopanib): 0.913 | IC50 (Pazopanib): > 8 µM

EW-22 (Ewing sarcoma, adherent)
AUC (MG-132): 0.984 | IC50 (MG-132): > 1 µM | AUC (GDC0941): 0.826 | IC50 (GDC0941): 2.3 µM | AUC (CEP-701): 0.771 | IC50 (CEP-701): 0.737 µM | AUC (SB 216763): 0.984 | IC50 (SB 216763): > 10 µM

CP66-MEL (melanoma, adherent)
AUC (MG-132): 0.501 | IC50 (MG-132): 0.0627 µM | AUC (AR-42): 0.784 | IC50 (AR-42): 2.51 µM | AUC (GDC0941): 0.812 | IC50 (GDC0941): 2.52 µM | AUC (CEP-701): 0.904 | IC50 (CEP-701): > 2 µM | AUC (Pazopanib): 0.918 | IC50 (Pazopanib): > 8 µM
